Reference: the supplement of paper PMC7826260
The other results are listed elsewhere or left out. Cleavage of a single-stranded DNA pool by Rep nickase domains was read by sequencing (3 µM enzyme, 1 h, 37 °C); shown is the middle of each 90-letter strand. A value is the log2 ratio of uncut reads to the pool without enzyme; uncut sequences lie near 0, cut ones below; no hit call is given. The scaling is to total reads; values above 0 arise when much of the pool is cut.

Columns and labels:
Assay in all cases: uncleaved DNA left, log2 of reads against the no-enzyme library (log2 ratio); higher = less cleavage (more negative = more Rep cleavage of the k-mer); sequences stand for … in CTCGTCCG…ACCGGAGA
[1] = test system: T1, Rep nickase domain of Muscovy duck circovirus
T1 sequence (Rep 1-111, printed without the tag): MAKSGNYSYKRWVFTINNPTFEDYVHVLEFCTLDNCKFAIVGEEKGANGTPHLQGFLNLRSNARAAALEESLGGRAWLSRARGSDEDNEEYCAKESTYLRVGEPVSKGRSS
Experimental: (§1)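 A pool of 90-nt single-stranded DNAs with seven random bases just before the constant AC of the nick site (name = the seven bases) was cut by 3 µM recombinant His6-SUMO-tagged Rep nickase domain (300 nM DNA, 50 mM HEPES pH 8.0, 50 mM NaCl, 1 mM MnCl2, 1 h, 37 °C, three replicates). Uncut DNA was amplified and sequenced.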

[2] = test system: T2, Rep nickase domain of banana bunchy top virus
T2 sequence (Rep 1-94, printed without the tag): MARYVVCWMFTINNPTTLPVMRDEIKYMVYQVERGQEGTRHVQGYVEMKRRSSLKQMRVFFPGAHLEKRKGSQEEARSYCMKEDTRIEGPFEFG
Experimental: as §1

[3] = test system: T3, Rep nickase domain of cabbage leaf curl virus
T3 sequence (Rep 1-116, printed without the tag): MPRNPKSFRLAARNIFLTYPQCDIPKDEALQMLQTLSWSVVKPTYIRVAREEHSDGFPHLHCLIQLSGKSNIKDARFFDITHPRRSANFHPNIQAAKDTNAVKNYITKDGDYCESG
Experimental: as §1

[4] = test system: T4, Rep nickase domain of chickpea chlorotic dwarf virus
T4 sequence (Rep 1-124, printed without the tag): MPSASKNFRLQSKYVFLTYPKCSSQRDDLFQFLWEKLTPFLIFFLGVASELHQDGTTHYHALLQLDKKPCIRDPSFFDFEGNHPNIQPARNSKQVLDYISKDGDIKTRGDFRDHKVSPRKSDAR
Experimental: as §1

[5] = test system: T5, Rep nickase domain of faba bean necrotic yellows virus
T5 sequence (Rep 1-98, printed without the tag): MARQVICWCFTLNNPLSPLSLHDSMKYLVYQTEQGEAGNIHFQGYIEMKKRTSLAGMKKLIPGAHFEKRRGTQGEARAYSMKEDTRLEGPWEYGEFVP
Experimental: as §1

[6] = test system: T6, Rep nickase domain of maize striate mosaic virus
T6 sequence (Rep 1-117, printed without the tag): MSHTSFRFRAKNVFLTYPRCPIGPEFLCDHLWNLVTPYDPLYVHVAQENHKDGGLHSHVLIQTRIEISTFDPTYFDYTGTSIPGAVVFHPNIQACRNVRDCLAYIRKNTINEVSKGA
Experimental: as §1

[7] = test system: T7, Rep nickase domain of porcine circovirus 2
T7 sequence (Rep 2-116, printed without the tag): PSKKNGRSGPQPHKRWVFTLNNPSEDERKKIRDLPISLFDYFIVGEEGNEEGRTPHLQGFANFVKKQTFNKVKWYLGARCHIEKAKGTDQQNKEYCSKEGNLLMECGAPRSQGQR
Experimental: as §1

[8] = test system: T8, Rep nickase domain of tomato golden mosaic virus
T8 sequence (Rep 1-124, printed without the tag): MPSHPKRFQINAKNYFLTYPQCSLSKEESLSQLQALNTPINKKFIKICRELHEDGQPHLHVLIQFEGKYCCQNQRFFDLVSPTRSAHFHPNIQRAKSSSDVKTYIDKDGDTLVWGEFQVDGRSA
Experimental: as §1

[9] = test system: T9, Rep nickase domain of tomato yellow leaf curl virus
T9 sequence (Rep 1-136, printed without the tag): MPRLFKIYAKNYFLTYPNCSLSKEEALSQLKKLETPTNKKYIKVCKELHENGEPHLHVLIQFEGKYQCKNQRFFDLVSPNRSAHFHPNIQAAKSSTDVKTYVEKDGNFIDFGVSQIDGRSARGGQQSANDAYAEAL
Experimental: as §1

[10] = test system: T10, Rep nickase domain of wheat dwarf virus
T10 sequence (Rep 1-137, printed without the tag): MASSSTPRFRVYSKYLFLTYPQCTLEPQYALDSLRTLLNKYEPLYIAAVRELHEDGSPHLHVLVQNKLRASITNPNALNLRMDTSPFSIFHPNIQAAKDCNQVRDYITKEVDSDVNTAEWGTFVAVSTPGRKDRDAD
Experimental: as §1

Sequence	uncleaved DNA left (log2) [1]	uncleaved DNA left (log2) [2]	uncleaved DNA left (log2) [3]	uncleaved DNA left (log2) [4]	uncleaved DNA left (log2) [5]	uncleaved DNA left (log2) [6]	uncleaved DNA left (log2) [7]	uncleaved DNA left (log2) [8]	uncleaved DNA left (log2) [9]	uncleaved DNA left (log2) [10]
CCTCTGA	0.0602	-0.0948	-0.0867	-0.259	-0.00842	-0.636	-0.0367	-0.217	-0.0835	-0.086
CTCCCGA	0.0814	0.152	-0.196	-0.319	0.234	-0.727	0.149	-0.0306	0.0866	0.00269
TGTGCGC	-0.109	-0.281	-0.88	-0.467	-0.0635	-0.923	-0.129	-0.272	-0.178	-0.338
GCGGCCT	0.0219	0.000831	0.335	0.595	-0.118	1.34	-0.0839	0.00398	0.0296	-0.078
ATGCCGG	-0.00504	0.00699	0.218	0.722	0.0334	0.61	0.0905	-0.00218	-0.13	0.012
TACGTTT	-0.111	-0.291	-2.66	-2.77	-0.105	-0.524	-1.72	-0.492	-0.0849	-0.609
GCAGTAC	0.0792	0.0111	0.0274	0.0726	0.0252	-0.151	0.0826	0.0561	-0.0259	0.0133
CGTCACT	-0.0759	0.068	0.0432	-1.18	-0.198	-0.113	-1.09	-0.0247	-0.00426	-0.0671
AACAGCA	-0.0655	-0.0195	-0.56	-1.89	-0.0268	-1.12	-0.264	-0.0552	0.00874	-0.0873
TTAGGTG	0.00133	-0.044	-0.283	-0.404	0.0494	-0.679	0.222	0.112	-0.0565	-0.0777
ACTCACG	-0.12	0.0269	-0.807	0.398	0.0399	-0.574	0.179	-0.104	-0.0682	0.00795
CCCATCT	-0.0216	-0.024	-0.186	-2.14	-0.094	-0.822	-0.142	-0.0691	-0.102	0.0112
AACAACT	-0.0111	-0.113	-0.801	-2.85	-0.114	-0.927	-2.69	-0.0573	-0.0106	-0.0722
GATGGCG	-0.0213	-0.0666	-0.519	0.909	0.117	0.0317	0.129	-0.145	0.0239	-0.155
TCTCTAC	0.151	-0.193	0.022	-1.85	0.0273	-0.37	-0.00199	-0.0321	0.00472	-0.0526
